Assay results as given in patent publication US20010021697A1, “METHODS AND COMPOSITIONS FOR THE TREATMENT OF MAMMALIAN INFECTIONS EMPLOYING MEDICAMENTS COMPRISING HYMENOPTERA VENOM, PROTEINAGEOUS OR POLYPEPTIDE COMPONENTS THEREOF, OR ANALOGUES OF SUCH PROTEINACEOUS OR POLYPEPTIDE COMPONENTS” (priority 1987, published 2001).

How the values were obtained:
[1] = tested on: E. coli strain #G1108E septicemia; type: in vivo, mice; settings: bacteria per milliliter blood, repeated treatments
[2] = tested on: E. coli strain #G1108E septicemia; test: Single treatment model of septicemia (bacteria in blood); type: in vivo, mice

Substance | significance of the treatment mean (Tukey's multiple mean comparison) [1] | significance of the treatment mean (Tukey's multiple mean comparison) ([2]; bacteria per milliliter of blood, single treatment) | Bacteria/ml Blood ([2]; single treatment 30 min after infection, subcutaneous, melittin 50 ng, polymyxin B 2 ug, blood 21 hours after inoculation, individual mice, listed as melittlin)
Melittin (1-20)-Lys-Arg-Lys-Arg-Gln-Gln-NH2. | lacked a significant difference | lacked statistical significance | 3.52 Log1Ø Bacteria/ml Blood and 2.34 Log1Ø Bacteria/ml Blood and 1.61 Log1Ø Bacteria/ml Blood
Polymyxin B | significant decrease | – | –

“And” between values parts separate entries of the source, which are not always exact repeats. Equal values may be shown once. Read-outs that look alike come from different tables or passages of the source.
